Test results taken from the supplement of paper PMC4967469.

Tests used:
Assay in all cases: Viability of human cancer cell lines after 72 h of drug (GDSC screen)
KIN001-266 = compound: CCN1CCC(n2cc(CNc3cc(Cl)c4ncc(C#N)c(Nc5ccc(F)c(Cl)c5)c4c3)nn2)CC1 [KIN001-266]; settings: top dose 20 µM; top dose inferred
Procedure: (§1)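 Human cancer cell lines in 384-well plates, medium with 10% serum, drug for 72 h over a 256-fold dose range (nine 2-fold or five 4-fold steps up to the top dose). Adherent lines were fixed and stained with the nucleic acid dye Syto60, suspension lines read with resazurin; signal relative to control wells, capped at 0 and 100%. One two-parameter sigmoid per drug and line, fitted in a mixed model over all curves with the slope shared within a line.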

CCT007093 = compound: O=C1/C(=C/c2cccs2)CC/C1=C\c1cccs1 [CCT007093]; settings: top dose 6.6 µM; top dose inferred
Procedure: as §1

BAY 61-3606 = compound: COc1ccc(-c2cc3nccn3c(Nc3ncccc3C(N)=O)n2)cc1OC [BAY 61-3606]; settings: top dose 8 µM; top dose inferred
Procedure: as §1

QL-XII-47 = compound: C=CC(=O)N1CCc2ccc(-n3c(=O)ccc4cnc5ccc(-c6cnn(C)c6)cc5c43)cc21 [QL-XII-47]; settings: top dose 10.24 µM; top dose inferred
Procedure: as §1

| Cell Line | AUC (KIN001-266) | IC50 (KIN001-266) [µM] | AUC (CCT007093) | IC50 (CCT007093) [µM] | AUC (BAY 61-3606) | IC50 (BAY 61-3606) [µM] | AUC (QL-XII-47) | IC50 (QL-XII-47) [µM] |
| --- | --- | --- | --- | --- | --- | --- | --- | --- |
| NCI-H2135 (non-small cell lung carcinoma, adherent) | 0.838 | 13 | 0.979 | > 6.6 | 0.858 | 6.27 | 0.548 | 0.862 |
| NCI-H2141 (small cell lung carcinoma, suspension) | 0.913 | > 20 | 0.991 | > 6.6 | 0.894 | > 8 | 0.93 | > 10.2 |
| NCI-H2170 (lung squamous cell carcinoma, adherent) | 0.974 | > 20 | 0.985 | > 6.6 | 0.835 | 5.58 | 0.968 | > 10.2 |
| NCI-H2172 (non-small cell lung carcinoma, adherent) | 0.885 | > 20 | 0.966 | > 6.6 | 0.982 | > 8 | 0.894 | > 10.2 |
| NCI-H2227 (small cell lung carcinoma, semi-adherent) | 0.834 | 15.5 | 0.985 | > 6.6 | 0.986 | > 8 | 0.524 | 0.751 |
| NCI-H2291 (lung adenocarcinoma, adherent) | 0.971 | > 20 | 0.983 | > 6.6 | 0.983 | > 8 | 0.969 | > 10.2 |
| NCI-H2347 (lung adenocarcinoma, adherent) | 0.873 | > 20 | 0.977 | > 6.6 | 0.819 | 5.88 | 0.845 | 9.93 |
| NCI-H2405 (lung adenocarcinoma, adherent) | 0.929 | > 20 | 0.961 | > 6.6 | 0.859 | 7.85 | 0.844 | 8.48 |
| NCI-H2444 (non-small cell lung carcinoma, adherent) | 0.967 | > 20 | 0.983 | > 6.6 | 0.988 | > 8 | 0.953 | > 10.2 |
| NCI-H2452 (mesothelioma, adherent) | 0.976 | > 20 | 0.967 | > 6.6 | 0.984 | > 8 | 0.984 | > 10.2 |
| NCI-H3122 (lung adenocarcinoma, adherent) | 0.904 | > 20 | 0.986 | > 6.6 | 0.711 | 2.01 | 0.74 | 3.2 |
| NCI-SNU-1 (stomach, suspension) | 0.743 | 6.39 | 0.981 | > 6.6 | 0.721 | 2.17 | 0.6 | 1.21 |
| NCI-SNU-5 (stomach, suspension) | 0.989 | > 20 | 0.983 | > 6.6 | 0.981 | > 8 | 0.977 | > 10.2 |
| NCI-SNU-16 (stomach, suspension) | 0.987 | > 20 | 0.976 | > 6.6 | 0.977 | > 8 | 0.991 | > 10.2 |
| NEC8 (testis, adherent) | 0.853 | 12.1 | 0.973 | > 6.6 | 0.892 | 6.93 | 0.461 | 0.508 |
| NH-12 (neuroblastoma, adherent) | 0.858 | 19.8 | 0.974 | > 6.6 | 0.736 | 2.59 | 0.521 | 0.734 |
| NKM-1 (acute myeloid leukaemia, suspension) | 0.829 | 13 | 0.973 | > 6.6 | 0.615 | 1.05 | 0.462 | 0.502 |
| NMC-G1 (glioma, adherent) | 0.775 | 9.8 | 0.982 | > 6.6 | 0.818 | 5.89 | 0.491 | 0.603 |
| NOMO-1 (acute myeloid leukaemia, suspension) | 0.802 | 11.5 | 0.9 | > 6.6 | 0.835 | 6.32 | 0.556 | 0.929 |
| NOS-1 (osteosarcoma, adherent) | 0.823 | 15.5 | 0.975 | > 6.6 | 0.501 | 0.502 | 0.503 | 0.652 |

| Cell Line | AUC (KIN001-266) | IC50 (KIN001-266) [µM] | AUC (CCT007093) | IC50 (CCT007093) [µM] | AUC (BAY 61-3606) | IC50 (BAY 61-3606) [µM] | AUC (QL-XII-47) | IC50 (QL-XII-47) [µM] |
| --- | --- | --- | --- | --- | --- | --- | --- | --- |
| NTERA-2 cl.D1 (testis, adherent) | 0.856 | 15.8 | 0.966 | > 6.6 | 0.728 | 2.21 | 0.697 | 2.27 |
| NUGC-3 (stomach, adherent) | 0.917 | > 20 | 0.965 | > 6.6 | 0.904 | > 8 | 0.872 | > 10.2 |
| NY (osteosarcoma, adherent) | 0.95 | > 20 | 0.985 | > 6.6 | 0.881 | > 8 | 0.978 | > 10.2 |
| OAW-28 (ovary, adherent) | 0.717 | 6.14 | 0.975 | > 6.6 | 0.919 | > 8 | 0.884 | > 10.2 |
| OAW-42 (ovary, adherent) | 0.982 | > 20 | 0.973 | > 6.6 | 0.884 | > 8 | 0.684 | 2.19 |
| OCI-AML2 (acute myeloid leukaemia, suspension) | 0.87 | 11.1 | 0.995 | > 6.6 | 0.852 | 3.92 | 0.84 | 4.64 |
| OCI-AML3 (acute myeloid leukaemia, suspension) | 0.835 | 10.6 | 0.982 | > 6.6 | 0.942 | > 8 | 0.505 | 0.657 |
| OCI-AML5 (acute myeloid leukaemia, suspension) | 0.893 | > 20 | 0.989 | > 6.6 | 0.74 | 2.26 | 0.487 | 0.592 |
| OCI-LY-19 (B-cell lymphoma, suspension) | 0.743 | 5.8 | 0.986 | > 6.6 | 0.588 | 0.852 | 0.502 | 0.648 |
| OCI-M1 (acute myeloid leukaemia, suspension) | 0.905 | 15.4 | 0.992 | > 6.6 | 0.952 | > 8 | 0.504 | 0.654 |
| OCUB-M (breast, adherent) | 0.854 | 12.6 | 0.945 | > 6.6 | 0.806 | 3.43 | 0.378 | 0.31 |
| OE19 (oesophagus, adherent) | 0.928 | > 20 | 0.978 | > 6.6 | 0.852 | 7.52 | 0.986 | > 10.2 |
| OE21 (oesophagus, adherent) | 0.914 | > 20 | 0.946 | > 6.6 | 0.854 | > 8 | 0.912 | > 10.2 |
| OE33 (oesophagus, adherent) | 0.833 | 16.4 | 0.984 | > 6.6 | 0.802 | 4.84 | 0.92 | > 10.2 |
| OMC-1 (cervix, adherent) | 0.96 | > 20 | 0.987 | > 6.6 | 0.966 | > 8 | 0.818 | 6.13 |
| ONS-76 (medulloblastoma, adherent) | 0.874 | > 20 | 0.959 | > 6.6 | 0.868 | > 8 | 0.531 | 0.78 |
| OPM-2 (myeloma, suspension) | 0.85 | 11.1 | 0.993 | > 6.6 | 0.856 | 4.66 | 0.65 | 1.53 |
| OS-RC-2 (kidney, adherent) | 0.817 | 18.3 | 0.975 | > 6.6 | 0.636 | 1.41 | 0.693 | 2.86 |
| OSC-19 (head and neck, adherent) | 0.87 | 19.9 | 0.976 | > 6.6 | 0.971 | > 8 | 0.806 | 5.48 |
| OSC-20 (head and neck, adherent) | 0.832 | 16.3 | 0.941 | > 6.6 | 0.75 | 3.05 | 0.55 | 0.897 |

| Cell Line | AUC (KIN001-266) | IC50 (KIN001-266) [µM] | AUC (CCT007093) | IC50 (CCT007093) [µM] | AUC (BAY 61-3606) | IC50 (BAY 61-3606) [µM] | AUC (QL-XII-47) | IC50 (QL-XII-47) [µM] |
| --- | --- | --- | --- | --- | --- | --- | --- | --- |
| OV-90 (ovary, adherent) | 0.892 | > 20 | 0.977 | > 6.6 | 0.894 | > 8 | 0.81 | 7.33 |
| OVCAR-3 (ovary, adherent) | 0.981 | > 20 | 0.983 | > 6.6 | 0.919 | > 8 | 0.986 | > 10.2 |
| OVCAR-4 (ovary, adherent) | 0.868 | > 20 | 0.969 | > 6.6 | 0.905 | > 8 | 0.817 | 9.8 |
| OVCAR-5 (ovary, adherent) | 0.909 | > 20 | 0.977 | > 6.6 | 0.849 | 7.99 | 0.632 | 1.6 |
| OVCAR-8 (ovary, adherent) | 0.862 | 14.3 | 0.99 | > 6.6 | 0.868 | 6.05 | 0.83 | 5.5 |
| OVISE (ovary, adherent) | 0.863 | > 20 | 0.968 | > 6.6 | 0.89 | > 8 | 0.689 | 2.61 |
| OVKATE (ovary, adherent) | 0.873 | > 20 | 0.979 | > 6.6 | 0.972 | > 8 | 0.88 | > 10.2 |
| OVMIU (ovary, adherent) | 0.87 | > 20 | 0.966 | > 6.6 | 0.892 | > 8 | 0.595 | 1.25 |
| OVTOKO (ovary, adherent) | 0.877 | > 20 | 0.966 | > 6.6 | 0.634 | 1.3 | 0.815 | 7.7 |
| P12-ICHIKAWA (T-cell lymphoblastic leukaemia, suspension) | 0.893 | 14.3 | 0.991 | > 6.6 | 0.826 | 3.44 | 0.507 | 0.664 |
| P30-OHK (lymphoblastic leukaemia, suspension) | 0.889 | 16.1 | 0.987 | > 6.6 | 0.485 | 0.459 | 0.563 | 0.922 |
| P31-FUJ (acute myeloid leukaemia, suspension) | 0.903 | 15.1 | 0.994 | > 6.6 | 0.993 | > 8 | 0.923 | 9.38 |
| P32-ISH (Burkitt lymphoma, suspension) | 0.846 | 9.52 | 0.993 | > 6.6 | 0.629 | 1.03 | 0.53 | 0.758 |
| PA-1 (ovary, adherent) | 0.845 | 10 | 0.974 | > 6.6 | 0.649 | 1.17 | 0.314 | 0.22 |
| PA-TU-8902 (pancreas, adherent) | 0.778 | 9.57 | 0.973 | > 6.6 | 0.942 | > 8 | 0.644 | 1.73 |
| PA-TU-8988T (pancreas, adherent) | 0.936 | > 20 | 0.97 | > 6.6 | 0.829 | 4.99 | 0.661 | 1.8 |
| PANC-02-03 (pancreas, adherent) | 0.781 | 10 | 0.964 | > 6.6 | 0.926 | > 8 | 0.818 | 7.3 |
| PANC-03-27 (pancreas, adherent) | 0.75 | 6.15 | 0.988 | > 6.6 | 0.813 | 3.98 | 0.748 | 3.11 |
| PANC-04-03 (pancreas, adherent) | 0.938 | > 20 | 0.867 | > 6.6 | 0.879 | > 8 | 0.837 | > 10.2 |
| PANC-08-13 (pancreas, adherent) | 0.791 | 11.9 | 0.962 | > 6.6 | 0.857 | > 8 | 0.571 | 1.05 |

IC50 is the fitted dose that halves viability relative to control wells, and lower means more sensitive; fits outside the tested doses are given as limits. AUC sums up the same curve from the lowest dose to the 256-fold higher top dose; it is 1 without any effect and falls as sensitivity rises. Any top dose called inferred was derived from the fitted curves, not read from the paper.
